The other results are listed elsewhere or left out.
B1: chr16:94664741:94664742:+_ENSMUSG00000040785_ENSMUST00000117648|mus_hu|mus_mus_mus_hu_False|38_58 (ssRNA)
RNA: GGGAGUUCUACAGUCCGACGAUCUGGUACUGAUCUUGGUAGCUGAUAUUCAGGAGAAAGGCUGGCCAAGGGUGUAUAAAUGCUAGUGUACUGGGGCAGGCUAGGUAACACGUUUAUGUAUGCUGGCGGUGUCUGGGUGAUAUCCAACAGAGGAUUGAGCAUCA
B2: 13967083_13969438_1710_CDS_ENSMUSG00000068036_ENSMUST00000139666|mouse|control|control (ssRNA)
RNA: GGGAGUUCUACAGUCCGACGAUCUGCCGGCAAUGCUGUCCCACUGUGGACAUCUCCUCCCAAUUCAAAGGUUGUCUCCUGAACAGCUCCAGGUUUAUGUCUUGGGCCCUUGACCAUCAGGCCUCCAUCCACAGAUCUCUUGGACAACAGAGGAUUGAGCAUCA
B3: 128802558_128804910_1938_CDS_ENSMUSG00000063317_ENSMUST00000046929|mouse|control|control (ssRNA)
RNA: GGGAGUUCUACAGUCCGACGAUCAGGUGUCAUGUCCAGGCCAGUCAAGGGGAACUUGACCAUAUUCUGAAGUUUCAUACGCCUGUCUCCUUCCUGGCGGAAUCUCUUGAGGUGUAUAAUAAGCACAUCAGGCAGAGUCCACAGCAACAGAGGAUUGAGCAUCA
B4: chr12:110720550:110720551:+_ENSG00000174437_ENST00000539276|hu_hu|motif|central (ssRNA)
RNA: GGGAGUUCUACAGUCCGACGAUCUUCUUCAAACCAAGCCAAAACAAAAGAUAUACAUGCUGCCAGUAAUAAAAUCCGGACGGGCAAGUCUUCAAACUGCUCAAUCACAAGUUCCAGCAAGGUUUUUCCUUCUUCAGCCGGUAACAACAGAGGAUUGAGCAUCA
B5: 32307255_32307489_2825_CDS_ENSG00000170759_ENST00000302418|human|control|control (ssRNA)
RNA: GGGAGUUCUACAGUCCGACGAUCUGUAGCCAGGUCCUGAACAAAGAGUUUGCGCAGGUUGUGUAAAGUCUGAAGUUCUUUUGCCACUGUCUCUUCCAAACCCUUCAAGUCUUGUCUUGCUUGUUCUCGUCUAUCUUGCAUAACCAACAGAGGAUUGAGCAUCA
B6: chr8:63386198:63386199:+_ENSMUSG00000038005_ENSMUST00000037190|mus_mus|motif|central (ssRNA)
RNA: GGGAGUUCUACAGUCCGACGAUCGGUCCCACUUCAAAGCACUGCACUAACAGGGCAGCUUGUUCAUCCUGCAAGCUGGUCGGUGUUCUCUUCACUUCUGCUUGCCAGAUGAUCUUCAAUAAUUUUUGCAAACAGAUCCCUCUUCAACAGAGGAUUGAGCAUCA
B7: 67951522_67951642_1118_3pUTR_ENSMUSG00000079614_ENSMUST00000025421|mouse|control|control (ssRNA)
RNA: GGGAGUUCUACAGUCCGACGAUCAUUUUGAAGAUUUGGAAUAUUUGAGCUCAGUGAAGGAUUUGAGUUUCCCAGCUGAGAACUCCCAUUUACUGGGCUCCCGUUACCUUUCAAAAUACCAGUACACUUCCAAUUGUCCAUGUACAACAGAGGAUUGAGCAUCA
B8: chr5:130458811:130458812:+_ENSMUSG00000066735_ENSMUST00000051758|mus_hu|FALSE|FALSE (ssRNA)
RNA: GGGAGUUCUACAGUCCGACGAUCUUUUCACUAUCUCCUCAGUCAACGCUGAGCUGACAGUUCUUCAGUGCUACACUCCAACUAAACUGUACAGUAAGUUCUGCAGAAAUGGAUCUAAUAUUUCUACCUUUAUUUACAAAUAUCCAACAGAGGAUUGAGCAUCA
B9: chr7:90019433:90019434:+_ENSMUSG00000057706_ENSMUST00000082237|mus_hu|mus_mus_mus_hu_True|88_88 (ssRNA)
RNA: GGGAGUUCUACAGUCCGACGAUCAAAUAAUACAGUGUUCUUUGCCAAAGGCCAUACCUAAAAUAAAAAGAUUUAACCCAGCUACAAAAAAGUUCACUGAACUUAAAUUAAAAUACUUGUAAACAUCUUUGCAAUAUGAAAUAUCAACAGAGGAUUGAGCAUCA
B10: chr4:144460044:144460045:+_ENSG00000153147_ENST00000283131|hu_mus|hu_hu_hu_mus_False|8_58 (ssRNA)
RNA: GGGAGUUCUACAGUCCGACGAUCACGGUCCAUAGCCUGAAGAUCAACUUGCGGAUUCCAAUCUGAGUCAUAUAAAAUUACUACAUCAGCAGUUGCAAGAUUGAUGCCCAGACCACCAGCACGUGUGCUUAACAUGAAUACAAACAACAGAGGAUUGAGCAUCA
B11: 122048412_122049300_2222_CDS_ENSMUSG00000031835_ENSMUST00000081381|mouse|control|control (ssRNA)
RNA: GGGAGUUCUACAGUCCGACGAUCGACUCUCUUGCUCCGAGGAGGGGUGGGAAUGAUCUUCACCUUGAUGGGCAGCUUCACGGUGGAAGUGUGCUCCGCACCACUGUGUAACUCUGUCUCUGCUGGGGACGCCACUGUGAUCAUCAACAGAGGAUUGAGCAUCA
B12: chr5:73476710:73476711:-_ENSMUSG00000070733_ENSMUST00000101127|mus_mus|FALSE|FALSE (ssRNA)
RNA: GGGAGUUCUACAGUCCGACGAUCAGAAUAGAGAUGUGGCAGCGGGGACAGCUGACUGAGGACUCCAUCCGUUCUCUGAACCUCCAGUUUGUGAGCAUAGCGAAACAUCUUCGGCUCCAGGAUCUGCAAGAGUUGCAUAGCAACCAACAGAGGAUUGAGCAUCA
B13: chr8:3604753:3604754:+_ENSMUSG00000044433_ENSMUST00000057028|mus_mus|FALSE|FALSE (ssRNA)
RNA: GGGAGUUCUACAGUCCGACGAUCGGGUGGUGUGAGUACCCUUGUCAAAGGUGCAAGCUUCAGCUCUGCCGGCCUUGCAUGUUUUGGACUACGGGGUGUUGGGCUGGGGCCUGGCCCAGGGCUGCGUCGGGCAGCUGGGGCACGCAACAGAGGAUUGAGCAUCA
B14: chr11:46405157:46405158:+_ENSG00000110492_ENST00000395566|hu_hu|FALSE|FALSE (ssRNA)
RNA: GGGAGUUCUACAGUCCGACGAUCCACUUAGGGGUGGGGCUGGGGAGUGAGAGGGACAAGGCAGGGCAUGAUUGAUUAAAGCUAACGAGCAGACAGAAGGCACUGGUGGGUCACAUCUCGGGCCUGGGAGAGGGAGGGCGUGGGCAACAGAGGAUUGAGCAUCA
B15: chr1:85784824:85784825:-_ENSG00000153904_ENST00000284031|hu_hu|FALSE|FALSE (ssRNA)
RNA: GGGAGUUCUACAGUCCGACGAUCAGUAUCUUUCCUUUUCAAAAAUAACAUUAUGCUAAUGAGAACAUCAAAGAAGUAAUACUAUGCUGCAAGUAAUUUAGGUUUUCACAUCAUCAAUCAUAUAGGGAGUCCAAAGAAGCCAGCCAACAGAGGAUUGAGCAUCA
B16: chr10:7421922:7421923:+_ENSMUSG00000040021_ENSMUST00000165952|mus_mus|motif|central (ssRNA)
RNA: GGGAGUUCUACAGUCCGACGAUCAUCAGACUGACCACCACCAUUCUGAACUCCAGGUCGCCCUGGUGUAAAGUUAAAUUUGCGGGUACUCUGCAUGAUGAUGGGUUGUCUACCAACUGGAACAGAACUAAUGGCCCUCUGAGCCAACAGAGGAUUGAGCAUCA
B17: chr12:16043544:16043545:+_ENSG00000023734_ENST00000419869|hu_hu|motif|central (ssRNA)
RNA: GGGAGUUCUACAGUCCGACGAUCUUUGUUCAAGUCAUAUAUGCGUAACAGUUUAUCCUGUCCCCCGGUUAACAAAUAAUUACGGUCCUGCGUGAAAUCCACAGUCUUGACAAUGUGUUUAUGAGCCAGGGUCAUCAAUUCAUCCAACAGAGGAUUGAGCAUCA
B18: chr2:202488911:202488912:-_ENSG00000155755_ENST00000286196|hu_mus|hu_hu_hu_mus_False|48_58 (ssRNA)
RNA: GGGAGUUCUACAGUCCGACGAUCAUUGAAACAUUUUUCAUAAUCUCCAGUAGCAUUUCAGCAUUAUGUAACAAAAGAUCUAUUACAAAUACACAUGUCUUAUAAAAAUACACUUAAAAACACGAGUGGGGAGCGCAGGCGCCACAACAGAGGAUUGAGCAUCA
B19: chr6:52679276:52679277:+_ENSMUSG00000004535_ENSMUST00000080723|mus_mus|motif|central (ssRNA)
RNA: GGGAGUUCUACAGUCCGACGAUCGUAACAGAACUGAUAAAAUUCUCCAUCAUCAUUUGGAAGGUAAUAUCCUUGAAAUGCGGGUACACAAUUGACUGUUGAUCCUUCCACAUAAUGUUCAGGCAUAGGAGACCAUAAAAAUGUCAACAGAGGAUUGAGCAUCA
B20: chr10:32150518:32150519:-_ENSG00000165322_ENST00000344936|hu_hu|FALSE|FALSE (ssRNA)
RNA: GGGAGUUCUACAGUCCGACGAUCUCCAUUAAUCUGAAUUGCCGGGCUCCCAGGAAGUGGGGGAAGAGCAGACUGGGAUAUUUUCAGUUCUUGAAGGUUAGCAUAGACAGGAGAAUCUGGCCUUCCUUGAUUUGGAGGUGUGGUCAACAGAGGAUUGAGCAUCA
B21: 73960316_73968448_362_CDS_ENSMUSG00000022110_ENSMUST00000160507|mouse|control|control (ssRNA)
RNA: GGGAGUUCUACAGUCCGACGAUCCUUUGAUCCUAAUUUUUUGGCAAUUGCGUAAGCUUCAUCGGAUGACUUUGCCACGAAGCCUUUGGGAACAGAGACACCCGCUUCCUGCAAUAACUCCAUACUCAAGUAUUCAUGCAGCGACAACAGAGGAUUGAGCAUCA
B22: chrX:69798090:69798091:-_ENSMUSG00000031343_ENSMUST00000055966|mus_mus|mus_mus_mus_hu_False|38_78 (ssRNA)
RNA: GGGAGUUCUACAGUCCGACGAUCAAGUCCCCGGGUUCUUGUCGUCUUGAUUCCCCUUGGCUAGUGGUUCCAGGGAGAAUAUUAAUCAGGAAAAGAAGUACAACUCUGGUCAUGUAACAGUGACUUGUUUGUGUGAUUAUCAUCCAACAGAGGAUUGAGCAUCA

The binders below were run against T1, UNK ZnF1-3 (human, UniProt Q9C0B0 31-174) (assay: nsRBNS (natural sequence RNA bind-n-seq); RBNS binding buffer (assumed for nsRBNS): 25 mM Tris pH 7.5, 150 mM KCl, 3 mM MgCl2, 0.01% Triton X-100, 500 ug/ml BSA, 20 U/ml SUPERase-In, 4 C; UNK is unkempt and MSI1 is Musashi-1; names of the RNAs are library labels; protein concentration not given here; high values mean tight binding).
T1 sequence: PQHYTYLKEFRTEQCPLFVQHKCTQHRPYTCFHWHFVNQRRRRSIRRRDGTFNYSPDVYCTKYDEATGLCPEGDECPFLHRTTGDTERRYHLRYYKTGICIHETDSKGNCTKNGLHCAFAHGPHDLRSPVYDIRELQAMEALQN

| Binder | binding signal |
| --- | --- |
| B1 | 0.948 enrichment R |
| B2 | 0.681 enrichment R |
| B3 | 0.607 enrichment R |
| B4 | 1.2 enrichment R |
| B5 | 0.738 enrichment R |
| B6 | 0.746 enrichment R |
| B7 | 0.349 enrichment R |
| B8 | 0.516 enrichment R |
| B9 | 1.53 enrichment R |
| B10 | 1.32 enrichment R |
| B11 | 0.871 enrichment R |
| B12 | 2.14 enrichment R |
| B13 | 0.744 enrichment R |
| B14 | 2.63 enrichment R |
| B15 | 2.56 enrichment R |
| B16 | 1.41 enrichment R |
| B17 | 1.1 enrichment R |
| B18 | 1.03 enrichment R |
| B19 | 0.811 enrichment R |
| B20 | 1.46 enrichment R |
| B21 | 0.722 enrichment R |
| B22 | 0.781 enrichment R |

— PMC12136788
